# A collection of fitness landscapes (doi:10.1016/j.celrep.2020.107928)
# The full ranking holds about 81,000 sequences; the median of “one-hybrid fitness for binding NBS DNA” is about -0.1, and the highest 2% start at about 0.36. Some of the results follow.
# B1: Caulobacter ParB omega fusion; a variant is named by its letters at X, in order, B8GW30 (parent)
# chain: MESVVVGEPGMSEGRRGLGRGLSALLGEVDAAPAQAPGEQLGGSREAPIEILQRNPDQPRRTFREEDLEDLSNSIREKGVLQPILVRPSPDTAGEYQIVAGERAWRAAQRAGLKTVPIMVRELDDLAVLEIGIIENVQRADLNVLEEALSYKVLMEKFERTQENIAQTIGKSXSHVANXMRLLXLPDEVQSYLVSGELTAXHARAIAAAADPVALAKQIIEGGLSVRETEALARKAPNLSAGKSKGGRPPRVKDTDTQALESDLSSVLGLDVSIDHRGSTGTLTITYATLEQLDDLCNRLTRGI
# Variants of: B1
# Assay: one-hybrid fitness for binding NBS DNA (the Noc-binding site; scaled: cognate 1, non-cognate 0); higher = stronger binding
# Details: with NBS DNA site
# How it was run: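 Values were rescaled so that cognate is 1 and non-cognate is 0. Each is a fitness, the log change in a variant's read ratio to wild type from Illumina reads of plasmids before and after selection, with three replicate libraries pooled and variants under 10 reads dropped. Selection of the Caulobacter ParB libraries, four specificity codons randomised, used E. coli USO with a HIS3 reporter, site 19 bp from the promoter, on M9-minus-histidine with 0.1 mM IPTG and 5 mM 3-AT for 48 hours at 37°C.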
row,Variant,one-hybrid fitness for binding NBS DNA
1,ICIN,≤ 0.2
2,ICKF,≤ 0.2
3,QNRK,≤ 0.2
4,RAYK,≤ 0.2
5,ELRA,≤ 0.2
6,KHET,≤ 0.2
7,RLYS,0.34
8,YYGS,≤ 0.2
9,DHYG,≤ 0.2
10,PTHA,≤ 0.2
11,GVRW,≤ 0.2
12,MVDR,≤ 0.2
13,QSVE,≤ 0.2
14,VGKF,≤ 0.2
15,AVFL,≤ 0.2
16,VQAS,≤ 0.2
17,HFKF,≤ 0.2
18,KLFS,≤ 0.2
19,SHRS,≤ 0.2
20,SESD,≤ 0.2
21,KAKQ,≤ 0.2
22,RQKI,≤ 0.2
23,VDQC,≤ 0.2
24,FIGC,≤ 0.2
25,ERYG,≤ 0.2
26,TWIG,≤ 0.2

row,Variant,one-hybrid fitness for binding NBS DNA
1,KENG,≤ 0.2
2,MMHT,≤ 0.2
3,CPNI,≤ 0.2
4,AHLS,≤ 0.2
5,PTYA,≤ 0.2
6,NEVS,≤ 0.2
7,QKWE,≤ 0.2
8,YIVG,≤ 0.2
9,LSTC,≤ 0.2
10,ACMR,≤ 0.2
11,IVKV,≤ 0.2
12,RCCM,≤ 0.2
13,QDFM,≤ 0.2
14,RSIV,≤ 0.2
15,SWVR,≤ 0.2
16,LLNC,≤ 0.2
17,RICA,≤ 0.2
18,NPTG,≤ 0.2
19,HMYS,≤ 0.2
20,QLYY,≤ 0.2
21,FYTT,≤ 0.2
22,AGTS,≤ 0.2
23,SCQI,≤ 0.2
24,RHHF,≤ 0.2
25,AELV,≤ 0.2
26,RMKQ,0.238

row,Variant,one-hybrid fitness for binding NBS DNA
1,RMQW,≤ 0.2
2,SFTF,≤ 0.2
3,GQRT,≤ 0.2
4,AKLA,≤ 0.2
5,QPNY,≤ 0.2
6,LNNG,≤ 0.2
7,KLTM,≤ 0.2
8,CASK,≤ 0.2
9,QQGD,≤ 0.2
10,VHNF,≤ 0.2
11,ESIL,≤ 0.2
12,NIGG,≤ 0.2
13,TASR,≤ 0.2
14,RVIA,≤ 0.2
15,GLPW,≤ 0.2
16,RIAQ,≤ 0.2
17,KTRT,0.44
18,QQSC,≤ 0.2
19,LTMG,≤ 0.2
20,SYYS,≤ 0.2
21,PWRS,≤ 0.2
22,PFPW,≤ 0.2
23,WVAL,≤ 0.2
24,PNFR,≤ 0.2
25,CRFR,≤ 0.2
26,PMVS,≤ 0.2

row,Variant,one-hybrid fitness for binding NBS DNA
1,YGQY,≤ 0.2
2,NMIY,≤ 0.2
3,HNRD,≤ 0.2
4,QCDK,≤ 0.2
5,PVNE,≤ 0.2
6,RCEA,≤ 0.2
7,RFMD,≤ 0.2
8,NTRK,≤ 0.2
9,KNPK,≤ 0.2
10,HAHW,≤ 0.2
11,SINL,≤ 0.2
12,EHDA,≤ 0.2
13,QGTR,≤ 0.2
14,SFPD,≤ 0.2
15,MTEE,≤ 0.2
16,YGAV,≤ 0.2
17,QILQ,≤ 0.2
18,QTQE,≤ 0.2
19,DMMS,≤ 0.2
20,WCNG,≤ 0.2
21,QQQC,≤ 0.2
22,QGRY,≤ 0.2
23,QAET,0.253
24,QYKV,0.372
25,VSHK,≤ 0.2
26,ILMS,≤ 0.2

row,Variant,one-hybrid fitness for binding NBS DNA
1,TRAD,≤ 0.2
2,RSGD,≤ 0.2
3,VTLY,≤ 0.2
4,TTMM,≤ 0.2
5,ANCV,≤ 0.2
6,ALHF,≤ 0.2
7,NKMR,≤ 0.2
8,YSRI,≤ 0.2
9,FSEN,≤ 0.2
10,PKLI,≤ 0.2
11,SEKM,≤ 0.2
12,AHMR,≤ 0.2
13,TRSL,≤ 0.2
14,IMMI,≤ 0.2
15,SQMY,≤ 0.2
16,EVCR,≤ 0.2
17,RPWW,≤ 0.2
18,LDKG,≤ 0.2
19,SGNG,≤ 0.2
20,GTPS,≤ 0.2
21,RNGR,0.21
22,RRST,0.776
23,QDPC,≤ 0.2
24,LAAR,≤ 0.2
25,ATPS,≤ 0.2
26,HIQR,≤ 0.2

row,Variant,one-hybrid fitness for binding NBS DNA
1,AVWL,≤ 0.2
2,HVDQ,≤ 0.2
3,TGME,≤ 0.2
4,PKHC,≤ 0.2
5,TYLS,≤ 0.2
6,QGIP,≤ 0.2
7,YVTL,≤ 0.2
8,PFAF,≤ 0.2
9,VRLM,≤ 0.2
10,RFCL,≤ 0.2
11,WSLL,≤ 0.2
12,IACV,≤ 0.2
13,ALIF,≤ 0.2
14,YLCV,≤ 0.2
15,AGIC,≤ 0.2
16,GHDL,≤ 0.2
17,AMNC,≤ 0.2
18,WLAL,≤ 0.2
19,HVPL,≤ 0.2
20,THNH,≤ 0.2
21,QPWR,≤ 0.2
22,GVMR,≤ 0.2
23,MCTM,≤ 0.2
